Reference: PMC8899767, “Compound heterozygous variants in OTULIN are associated with fulminant atypical late‐onset ORAS” (EMBO Molecular Medicine, 2022)

B1: OTULIN^C129A (catalytically inactive OTULIN) (enzyme)
chain: not shown
notes: OTULIN (FAM105B, Gumby), human; also called OTU-deubiquitinase with linear linkage specificity; FAM105B; source: E. coli BL21 (DE3), purified (GSH-Sepharose, on-column HRV3C cleavage, gel filtration)
B2: OTULIN^C129A/M86I (enzyme)
chain: not shown
notes: OTULIN (FAM105B, Gumby), human; also called OTULIN^M86I/C129A; source: E. coli BL21 (DE3), purified (GSH-Sepharose, on-column HRV3C cleavage, gel filtration)
B3: OTULIN^C129A/W167S (enzyme)
chain: not shown
notes: OTULIN (FAM105B, Gumby), human; also called OTULIN^W167S/C129A; source: E. coli BL21 (DE3), purified (GSH-Sepharose, on-column HRV3C cleavage, gel filtration)

What follows are binders tested against T1, linear di-ubiquitin chains (UniProt P0CG47 fragment; P0CG47 fragment) (assay: SPR; Biacore S200; di-ubiquitin chains amine-coupled to a CM5 chip; OTULIN injected at 0.065-8 µM, multi-cycle, 30 µl/min; 150 mM NaCl, 20 mM HEPES/NaOH pH 7.5, 2 mM DTT, 0.005% Tween 20; 20°C; Kd from steady state). Settings: both partners purified.
T1 construct: ubiquitin, distal unit of the M1-linked (head-to-tail) di-ubiquitin; its C-terminus is joined to M1 of the next unit; ubiquitin, proximal unit of the M1-linked (head-to-tail) di-ubiquitin; The methods say only 'di-ubiquitin chains (UbiQ)'; the results call them linear di-ubiquitin chains; also called M1-diubiquitin; source: bought: UbiQ
B1 showed a Kd of 3.3 µM. B2 gave a Kd of 4.9 µM. B3 showed a Kd of 5.1 µM.
